# Assay results from publication PMC6919601, “Identification of Plasmodium dipeptidyl aminopeptidase allosteric inhibitors by high throughput screening” (PLoS ONE, 2019).
# Values joined by “and” are separate entries in the source; they are usually repeats but may differ in a detail not shown here. Equal values may be shown once. In all, about 110,000 compounds went through this assay and about 230 (0.21%) showed an effect of 50% or more. The list shows a part of the results.
# Molecular target: DPAP1 (Plasmodium falciparum, UniProt Q8IIJ9)
# Sequence (Q8IIJ9 whole entry, looked up): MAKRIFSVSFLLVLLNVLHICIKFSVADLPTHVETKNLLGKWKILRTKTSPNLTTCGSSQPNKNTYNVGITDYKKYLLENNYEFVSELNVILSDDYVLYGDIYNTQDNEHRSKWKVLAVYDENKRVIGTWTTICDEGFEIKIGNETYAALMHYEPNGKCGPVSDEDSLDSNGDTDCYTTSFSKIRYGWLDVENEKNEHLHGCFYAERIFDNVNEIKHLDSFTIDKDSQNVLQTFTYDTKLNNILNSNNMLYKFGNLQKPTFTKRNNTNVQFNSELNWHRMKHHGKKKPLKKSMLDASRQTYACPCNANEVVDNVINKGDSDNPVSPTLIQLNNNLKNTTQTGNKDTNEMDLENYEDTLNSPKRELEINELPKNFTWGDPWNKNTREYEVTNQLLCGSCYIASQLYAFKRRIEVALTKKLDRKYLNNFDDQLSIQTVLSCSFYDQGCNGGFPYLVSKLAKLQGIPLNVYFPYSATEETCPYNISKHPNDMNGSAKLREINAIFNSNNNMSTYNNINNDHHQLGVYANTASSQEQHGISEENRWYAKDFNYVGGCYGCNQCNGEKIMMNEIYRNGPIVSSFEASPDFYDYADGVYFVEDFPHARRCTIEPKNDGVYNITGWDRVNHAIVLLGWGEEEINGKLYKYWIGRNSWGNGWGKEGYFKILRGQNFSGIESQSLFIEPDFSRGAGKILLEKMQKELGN
# Assay: primary screen, percent inhibition; read by cleavage of a fluorogenic dipeptide substrate; higher = more effect of the substance
# Design: species or system P. falciparum D10 trophozoite lysates; single well
# 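Note: 30 min substrate incubation versus DMSO and 10 µM JCP410 controls.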
row,Structure (SMILES),% Inhibition @ 10 uM
1,OCCCNc1ncnc2c1oc1ccccc12,-5.41%
2,O=C1CSC2N1CCCC21CCCCC1 (stereo not shown),2.58%
3,Cc1cc(OC(C)C(=O)NC2CCS(=O)(=O)C2)cc(C)c1Cl (stereo not shown),-1.89%
4,CCN1CCN(C(=O)C(C)Oc2ccccc2Cl)CC1 (stereo not shown),-0.884% and -2.46%
5,COc1ccc(/C=N/c2nc3c(s2)CCc2cc(OC)ccc2-3)cc1,3.16%
6,CNC(=O)c1[nH]cnc1C(=O)Nc1cccc(OC)c1,-4.68%
7,C=CCNC(=O)CCCc1nc(-c2ccc(OC)cc2)no1,-2.92%
8,CN(C)CCN1C(=O)C(O)=C(C(=O)c2ccccc2)C1c1ccc(N(C)C)cc1 (stereo not shown),-4.82%
9,Cn1c2ccccc2n2c(=O)c(Cl)c(-c3ccccc3)c(C#N)c12,-1.98%
10,N#CCNC(=O)[C@H](CC1=CCCC1)NC(=O)c1ccccc1,-1.83%
11,O=C(CSc1nnc(-c2cccc(F)c2)n1-c1ccccc1)NCc1ccco1,6.91%
12,COc1ccc(S(=O)(=O)Nc2cccc(C(C)=O)c2)cc1,-1.92%
13,COC(=O)c1sc2nc3c(c(-c4ccc(C)cc4)c2c1N)CCCC3,-4.16%
14,CCOc1ccccc1CN1CCN(c2ccc(F)cc2)CC1,-7.33%
15,COc1ccccc1/C=C/C1=NN(c2ccc(Cl)cc2)C(c2ccccc2OC)C1 (stereo not shown),-1.59%
16,CCN(CC)S(=O)(=O)c1cccc(C(=O)Nc2cccc([N+](=O)[O-])c2)c1,1.63%
17,O=C1c2ccccc2-c2nn(C(=O)Cc3ccccc3)c3cccc1c23,-0.958%
18,CCS(=O)(=O)c1nc(S(=O)(=O)c2ccc(Cl)cc2)c(NCc2ccccc2)s1,-0.522%
19,COC(=O)c1ccc2c(c1)[N+](C)=C(/C=C/c1ccc(OC)cc1OC)C2(C)C,-1.11%
20,CCOc1ccccc1NC(=O)CN(c1ccccc1)S(=O)(=O)c1ccc(C)cc1,4.11%
21,Cc1ccc(-c2nn(CC(=O)NCCc3ccccc3)c(=O)c3ccccc23)cc1,-3.21%
22,Cn1nc(C(F)(F)F)cc1C(=O)N1CCc2ccccc21,29.1%
23,O=S(=O)(NCc1ccccn1)c1ccc(Oc2ccccc2Cl)cc1,5.31%
24,Cc1ccc(OCCCCn2ccnc2)cc1C,-3.42%
25,O=C(CN1Cc2ccccc2C1=O)Nc1cccnc1,3.37%
26,O=C(COc1ccccc1)Nc1cccc(NC(=O)Cc2ccccc2)c1,-4.84%
27,COc1ccc(CNc2ccccc2)c2ccccc12,6.52%
28,COc1ccc(CCNc2oc(/C=C/c3cccs3)nc2C#N)cc1OC,-3.49%
